The other results are listed elsewhere or left out. The energies were worked out here from pooled read counts, against the library average; single values are noisy.
biological target: T1, Pho4 (S. cerevisiae) (UniProt P07270); assay: relative binding free energy (BET-seq); higher = weaker binding; settings: reference: library average
T1 sequence: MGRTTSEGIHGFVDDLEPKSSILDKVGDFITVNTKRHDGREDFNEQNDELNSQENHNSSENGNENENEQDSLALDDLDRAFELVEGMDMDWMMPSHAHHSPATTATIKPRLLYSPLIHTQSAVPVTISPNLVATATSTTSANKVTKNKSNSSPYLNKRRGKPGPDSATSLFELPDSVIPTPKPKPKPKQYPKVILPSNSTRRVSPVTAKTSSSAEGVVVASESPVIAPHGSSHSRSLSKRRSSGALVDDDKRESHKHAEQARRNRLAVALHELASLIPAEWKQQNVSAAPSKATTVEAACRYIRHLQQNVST

Sequence | relative binding free energy [kcal/mol]
TGACTCACGTGGTTAG | 0.13
GGAAGCACGTGGTCGG | -0.21
TTGTTCACGTGAGTTT | 0.41
ATGTGCACGTGTGTCG | 0.02
TTTTTCACGTGACGTG | 0.34
GATAGCACGTGATTGT | 0
GCTTTCACGTGGGGGG | 0.16
CCGTTCACGTGGGTGA | 0.15
GGTGTCACGTGGGGTC | 0.07
AGATTCACGTGTTACG | 0.26
AATAACACGTGTGGAG | 0.09
GGTGGCACGTGTGGTG | 0.05
CTAGTCACGTGTAGTT | 0.17
GTAACCACGTGAGGGT | 0.14
TGAAGCACGTGTGTGG | 0.08
TTAGTCACGTGGGGCG | -0.07
TTGGCCACGTGCGTTT | -0.1
TTGTCCACGTGGTTCT | 0.11
TGACGCACGTGTGTTA | -0.16
TTAGACACGTGTGTTA | 0.14
CAGAGCACGTGGGGGT | -0.33
TAAGTCACGTGGCGAT | 0.09
AGTTACACGTGAGGAG | 0.28
ATTCACACGTGGGGTG | -0.16
TTGCTCACGTGGCTGG | 0.16

Sequence | relative binding free energy [kcal/mol]
GTGTGCACGTGGATTT | 0.16
CGGTTCACGTGTGGTC | 0.2
ATTTGCACGTGGTCTA | -0.26
AGTTCCACGTGCTGTG | 0.05
GCAGTCACGTGTAAGG | 0.14
AAGTACACGTGGTTGA | -0.06
TGGATCACGTGTCTTG | 0.17
AGGCTCACGTGTTGTG | 0.11
TATAACACGTGTATTT | -0.12
TGCAACACGTGGTAGT | -0.03
CTGTGCACGTGATTTT | 0.13
CAGAGCACGTGAGTGT | 0.05
AATTTCACGTGGAGAG | 0.19
TTTAACACGTGTTCTT | -0.01
TATGGCACGTGAACTT | 0.08
TTGTCCACGTGTTGTG | -0.02
ATTTGCACGTGGGCTT | -0.04
TTCGACACGTGCGGGG | -0.11
GGATGCACGTGGGATG | 0
AAGTACACGTGTGTAA | 0.11
GAAGGCACGTGTCTTT | 0.2
CTTTACACGTGGGTGC | -0.06
ATCATCACGTGAGTTT | 0.33
TGTCTCACGTGTGCTA | 0.15
ATGTTCACGTGTAATG | 0.2

Sequence | relative binding free energy [kcal/mol]
CAAATCACGTGGGGTT | 0.08
CGGGGCACGTGTAAGA | -0.08
TTCGACACGTGGTCGT | -0.07
TAATTCACGTGATTAT | 0.41
AGTTTCACGTGACGGG | 0.51
CATTGCACGTGGTGGT | -0.03
TTTCGCACGTGTAGGA | 0.02
TTTTGCACGTGCTGAC | 0.12
GAGGGCACGTGTTGGA | 0
CGATGCACGTGTTTGT | 0
CATGCCACGTGGTGTG | -0.26
TAGTGCACGTGGTGAA | -0.2
AAGCTCACGTGAGTGT | 0.43
AGGAGCACGTGGCGGC | -0.32
TTGTACACGTGACGTG | 0.15
AACATCACGTGGGTTT | 0.1
GAGTTCACGTGTTAGC | 0.29
GGGTACACGTGGGTTC | 0.09
GGTTTCACGTGCTGAT | 0.29
TAAGGCACGTGAGAAG | 0.13
TCAGGCACGTGGGCTG | -0.23
TTTATCACGTGTAGGC | 0.11
TCTGACACGTGTTGCG | 0.15
CGTTACACGTGGTAGG | 0.02
AATGGCACGTGGGTGA | -0.14

Sequence | relative binding free energy [kcal/mol]
TGGTACACGTGCTGCG | -0.05
TACATCACGTGTGTGG | 0.12
AAAGGCACGTGTTGGT | -0.08
AGATTCACGTGCATGG | 0.2
GTTCTCACGTGGGCGA | 0.21
TATGGCACGTGTTATA | -0.08
GTGTTCACGTGTGGCA | 0.31
CGGTACACGTGATGGG | 0.14
ATGTGCACGTGAGTGG | 0.21
TAGTTCACGTGCAATG | 0.38
GAGTACACGTGTATTT | 0.18
TCGTTCACGTGATGCT | 0.39
CTGGTCACGTGGTGTA | -0.03
TTAGGCACGTGAGAAG | 0.21
ATCGTCACGTGTGCGT | 0.14
GCACGCACGTGTGGGG | -0.25
TGCGGCACGTGGAGGG | -0.07
GACTTCACGTGGGCGG | 0.38
AGTAACACGTGGGCTG | -0.21
GGTTTCACGTGGAAGT | 0.35
TTGTACACGTGTGCAG | -0.13
ATAATCACGTGAATTG | 0.19
TGTATCACGTGAGCGG | 0.45
GTGTACACGTGGTCTT | 0
TGCTGCACGTGTGCGG | 0.02

Sequence | relative binding free energy [kcal/mol]
GACGTCACGTGTTTGG | 0.18
AATATCACGTGGGATA | 0.19
TGGGGCACGTGTCCGT | -0.19
GGGTCCACGTGCGGGG | -0.03
AGATGCACGTGAAGGC | 0.31
CTATGCACGTGTATGT | -0.04
GACGTCACGTGAAGTG | 0.44
TGTTTCACGTGATTAT | 0.38
TGCGGCACGTGAGGGT | 0.09
AAGTGCACGTGGTGAT | -0.17
ATAGGCACGTGTGGAT | -0.08
CGTAGCACGTGATTGT | 0
AGATTCACGTGTAGTT | 0.19
ATGATCACGTGGCTTG | 0.09
GTCAGCACGTGATGGG | 0
TTGTGCACGTGCAGGA | -0.12
ATGTACACGTGGTTTG | 0.02
ATTTTCACGTGCACGT | 0.15
CATTCCACGTGGGGGT | -0.12
TAATCCACGTGTTGTA | 0.06
TTGGCCACGTGAATAG | 0.44
CTAGGCACGTGTGTAC | 0.01
TTTAACACGTGAAGGT | 0.37
ATTCGCACGTGTAATG | -0.05
GGGTTCACGTGTGCTC | 0.31

Sequence | relative binding free energy [kcal/mol]
TTTTGCACGTGGCGCA | -0.12
AATTTCACGTGAAGGA | 0.43
TACGACACGTGTTGGG | -0.02
GATGGCACGTGCGGGG | -0.18
GCGGGCACGTGGGTTC | -0.17
GTGTACACGTGGTTGA | 0.02
ACTTACACGTGGTTTT | 0.07
TTATGCACGTGGGCAA | -0.22
CAGTTCACGTGGTATT | 0.33
TGCTTCACGTGTGTCG | 0.28
GTATGCACGTGGGGCG | -0.1
TCGGACACGTGGGATG | -0.09
GGCGTCACGTGGGAGT | 0.21
TTTAACACGTGGAGTG | -0.05
TGTCGCACGTGGGATG | -0.12
GAAGTCACGTGTAAGT | 0.22
TCGTTCACGTGGTGTT | 0.22
AGGCTCACGTGAGTTT | 0.3
CGAAGCACGTGGTGCG | -0.11
GGTTGCACGTGTCATG | 0
CGCGGCACGTGTATGT | -0.09
